# From paper PMC3787956, “Soluble Human Leukocyte Antigen-G5 Activates Extracellular Signal-Regulated Protein Kinase Signaling and Stimulates Trophoblast Invasion” (PLoS ONE, 2013)
# B1: Recombinant HLA-G5 protein (soluble human leukocyte antigen-G5) (ligand)
# MHC heavy: not shown
# modifications: labeled with Alexa Fluor 488 (microscale protein labeling kit)
# Biological target: leukocyte immunoglobulin-like receptor subfamily B1 (LILRB1) (human (endogenous in JAr and JEG-3), UniProt Q8NHL6 24-650)
# Chain of UniProt Q8NHL6 (Q8NHL6 24-650): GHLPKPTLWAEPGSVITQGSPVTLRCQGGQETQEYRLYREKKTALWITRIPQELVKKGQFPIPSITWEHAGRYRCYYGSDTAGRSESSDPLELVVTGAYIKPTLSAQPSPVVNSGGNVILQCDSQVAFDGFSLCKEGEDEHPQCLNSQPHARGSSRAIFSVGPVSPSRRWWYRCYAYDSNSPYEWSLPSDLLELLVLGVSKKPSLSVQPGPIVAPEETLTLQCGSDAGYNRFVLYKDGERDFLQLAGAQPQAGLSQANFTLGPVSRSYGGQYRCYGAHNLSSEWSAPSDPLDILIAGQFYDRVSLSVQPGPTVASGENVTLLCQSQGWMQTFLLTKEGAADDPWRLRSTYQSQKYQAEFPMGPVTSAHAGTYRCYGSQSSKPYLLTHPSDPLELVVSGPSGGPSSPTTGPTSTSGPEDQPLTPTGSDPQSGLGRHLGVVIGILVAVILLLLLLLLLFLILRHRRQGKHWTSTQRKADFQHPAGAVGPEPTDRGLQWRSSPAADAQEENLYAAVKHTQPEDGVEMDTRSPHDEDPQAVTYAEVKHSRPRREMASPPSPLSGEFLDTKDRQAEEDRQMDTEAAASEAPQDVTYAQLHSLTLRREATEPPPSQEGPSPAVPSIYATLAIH
# Experiment: cell-based or functional assay
binder,measurement,value
B1,"invasiveness of JEG-3 cells in the Matrigel trans-well invasion assay with HLA-G5, percent relative to untreated control, 236.2% without antibody; value with anti-LILRB1 antibody",96.2%
